What all share (assay): 6-mer SELEX enrichment z-score vs GST control; IMP3 is the RNA-binding protein IGF2BP3; higher = more enriched by binding
One assay deals with IMP3 KH1-4. Conditions: construct: KH1-4 (164-579); SELEX round: R4. As for the experimental part:
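SELEX-seq with GST-tagged IMP3 KH1-4 (Pro164-Lys579) and an N40 RNA pool, round 4. 6-mer z-score of sequence-tag enrichment normalised to the corresponding GST SELEX round; RNA k-mers written as DNA (T for U).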

Another assay has as its system IMP3 RRM1-2. Conditions: construct: RRM1-2 (1-163); SELEX round: R2. As for the experimental part: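 SELEX-seq with GST-tagged IMP3 RRM1-2 (Met1-Asn163) and an N40 RNA pool, round 2. 6-mer enrichment z-score normalised to GST SELEX. RNA written as DNA (T = U).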
For the next assay, the system named is IMP3 KH1-2. Conditions: construct: KH1-2 (164-376); SELEX round: R4. As for the experimental part:
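SELEX-seq with GST-tagged IMP3 KH1-2 (Pro164-Phe376) and an N40 RNA pool, round 4 (stringent 300/600 mM KCl washes). 6-mer z-score of sequence-tag enrichment normalised to the corresponding GST SELEX round; RNA k-mers written as DNA (T for U).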

The next assay deals with IMP3 KH3-4. Conditions: construct: KH3-4 (377-579); SELEX round: R4. As for the experimental part:
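SELEX-seq with GST-tagged IMP3 KH3-4 (Pro377-Lys579) and an N40 RNA pool, round 4. 6-mer z-score of sequence-tag enrichment normalised to the corresponding GST SELEX round; RNA k-mers written as DNA (T for U).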

This is an account of results in the supplement of paper PMC6531468.

This is one part of the list. These are enrichments in a pooled selection; single values are uncertain. Scores sum up all selected molecules that hold the word; the word was not tested alone.

Chain of IMP3 KH1-2 (chain, as listed by the source): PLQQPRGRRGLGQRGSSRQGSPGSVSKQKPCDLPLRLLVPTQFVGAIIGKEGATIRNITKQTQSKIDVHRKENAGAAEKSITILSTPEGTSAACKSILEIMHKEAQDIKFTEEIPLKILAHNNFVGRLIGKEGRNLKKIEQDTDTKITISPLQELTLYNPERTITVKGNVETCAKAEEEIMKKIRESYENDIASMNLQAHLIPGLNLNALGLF
Chain of IMP3 KH1-4 (chain, as listed by the source): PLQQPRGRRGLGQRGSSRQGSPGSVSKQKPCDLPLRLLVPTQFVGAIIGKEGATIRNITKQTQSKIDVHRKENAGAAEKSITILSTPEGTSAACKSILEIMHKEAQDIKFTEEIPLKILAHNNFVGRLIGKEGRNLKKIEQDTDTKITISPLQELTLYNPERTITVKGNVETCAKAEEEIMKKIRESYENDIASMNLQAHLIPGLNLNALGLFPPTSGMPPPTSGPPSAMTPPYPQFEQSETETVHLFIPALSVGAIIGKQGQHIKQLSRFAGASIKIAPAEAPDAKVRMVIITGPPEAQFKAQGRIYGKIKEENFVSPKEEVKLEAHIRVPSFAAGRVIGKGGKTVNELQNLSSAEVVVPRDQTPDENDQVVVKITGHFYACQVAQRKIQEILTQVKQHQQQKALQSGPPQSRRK
Chain of IMP3 RRM1-2 (chain, as listed by the source): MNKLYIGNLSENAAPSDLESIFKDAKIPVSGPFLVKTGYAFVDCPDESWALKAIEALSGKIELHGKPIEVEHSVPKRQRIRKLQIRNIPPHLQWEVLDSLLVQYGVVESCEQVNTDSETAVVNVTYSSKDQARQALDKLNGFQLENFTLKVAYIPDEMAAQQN
Chain of IMP3 KH3-4 (chain, as listed by the source): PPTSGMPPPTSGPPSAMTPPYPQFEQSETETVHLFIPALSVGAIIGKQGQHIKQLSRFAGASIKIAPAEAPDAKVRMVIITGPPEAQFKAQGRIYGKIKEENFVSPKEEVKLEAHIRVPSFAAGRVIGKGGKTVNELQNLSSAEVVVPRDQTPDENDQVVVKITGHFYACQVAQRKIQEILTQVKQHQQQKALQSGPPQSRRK

Consider ACGTTG, for which the “6-mer SELEX enrichment z-score” value in the assay with IMP3 KH1-4 is -0.701; with IMP3 RRM1-2, -0.098; in the assay on IMP3 KH1-2, -0.729; with IMP3 KH3-4, -0.629.

Take TCACGG: the “6-mer SELEX enrichment z-score” value in the assay on IMP3 KH1-4 was -0.048; in the assay on IMP3 RRM1-2, 0.53; in the assay with IMP3 KH1-2, -0.253; in the assay with IMP3 KH3-4, -0.208.

With AATACC, the “6-mer SELEX enrichment z-score” value in the assay on IMP3 KH1-4 is -0.993; in the assay on IMP3 RRM1-2, -1.14; with IMP3 KH1-2, -0.993; in the assay with IMP3 KH3-4, -1.25.

ACCTTG: the “6-mer SELEX enrichment z-score” value in the assay on IMP3 KH1-4 was -1.31; in the assay with IMP3 RRM1-2 it was -0.295; with IMP3 KH1-2, -1.3; with IMP3 KH3-4 it was -1.31.

On to GTCGTA, for which the “6-mer SELEX enrichment z-score” value with IMP3 KH1-4 was -0.447; in the assay with IMP3 RRM1-2, 0.108; with IMP3 KH1-2, -0.369; with IMP3 KH3-4, -0.255.

In the case of CCACGG, the “6-mer SELEX enrichment z-score” value was -0.398 in the assay with IMP3 KH1-4, -0.249 in the assay on IMP3 RRM1-2, -0.448 in the assay with IMP3 KH1-2 and -0.81 in the assay with IMP3 KH3-4.

CCTCAT: the “6-mer SELEX enrichment z-score” value in the assay on IMP3 KH1-4 was 0.364; in the assay with IMP3 RRM1-2 it was 0.821; with IMP3 KH1-2 it was 0.337; in the assay with IMP3 KH3-4 it was -0.071.

On to TTCGGT, for which the “6-mer SELEX enrichment z-score” value in the assay on IMP3 KH1-4 is 0.038; in the assay with IMP3 RRM1-2, 0.442; with IMP3 KH1-2 it was 0.037; in the assay on IMP3 KH3-4, 0.246.

On to TGGGAC, for which the “6-mer SELEX enrichment z-score” value in the assay with IMP3 KH1-4 was -0.22; in the assay with IMP3 RRM1-2, 0; in the assay on IMP3 KH1-2 it was -0.195; in the assay with IMP3 KH3-4 it was -0.189.

TATATT: the “6-mer SELEX enrichment z-score” value in the assay on IMP3 KH1-4 is 1.7; in the assay on IMP3 RRM1-2, 0.406; in the assay on IMP3 KH1-2, 1.55; with IMP3 KH3-4, 2.31.

Consider CCGCCG, for which the “6-mer SELEX enrichment z-score” value is -0.151 with IMP3 KH1-4, -0.612 in the assay with IMP3 RRM1-2, 0.327 with IMP3 KH1-2 and -0.702 with IMP3 KH3-4.

CATCAT: the “6-mer SELEX enrichment z-score” value in the assay on IMP3 KH1-4 was 2.04; in the assay with IMP3 RRM1-2, 2.65; in the assay on IMP3 KH1-2, 1.76; in the assay on IMP3 KH3-4, 1.27.

With GGGAGC, the “6-mer SELEX enrichment z-score” value in the assay with IMP3 KH1-4 was 0.005; in the assay on IMP3 RRM1-2 it was -0.112; in the assay on IMP3 KH1-2 it was 0.218; in the assay with IMP3 KH3-4, 0.178.

As for GCATTA, the “6-mer SELEX enrichment z-score” value with IMP3 KH1-4 worked out at 0.485; in the assay with IMP3 RRM1-2 it was 0.577; in the assay with IMP3 KH1-2, 0.307; with IMP3 KH3-4 it was 0.454.

On to CATCAC, for which the “6-mer SELEX enrichment z-score” value with IMP3 KH1-4 was 1.79; in the assay with IMP3 RRM1-2, 3.17; in the assay on IMP3 KH1-2 it was 1.6; in the assay on IMP3 KH3-4 it was 0.33.

Consider GCGGTC, for which the “6-mer SELEX enrichment z-score” value stood at 0.228 with IMP3 KH1-4, 0.303 with IMP3 RRM1-2, 0.153 in the assay with IMP3 KH1-2 and 0.176 in the assay on IMP3 KH3-4.

Regarding ACGCCA, the “6-mer SELEX enrichment z-score” value in the assay with IMP3 KH1-4 is 0.195; in the assay with IMP3 RRM1-2, -0.324; in the assay on IMP3 KH1-2, 0.246; in the assay with IMP3 KH3-4, -0.439.

As for TGAGAA, the “6-mer SELEX enrichment z-score” value is 0.244 with IMP3 KH1-4, -1.06 with IMP3 RRM1-2, 0.105 in the assay with IMP3 KH1-2 and 0.731 in the assay with IMP3 KH3-4.

In the case of CCAAAT, the “6-mer SELEX enrichment z-score” value with IMP3 KH1-4 was -1.03; in the assay on IMP3 RRM1-2, -0.896; in the assay on IMP3 KH1-2, -0.941; in the assay on IMP3 KH3-4, -1.26.

For the sequence CGGCCT, the “6-mer SELEX enrichment z-score” value was 0.437 with IMP3 KH1-4, 0.07 in the assay on IMP3 RRM1-2, 0.313 with IMP3 KH1-2 and 0.435 in the assay with IMP3 KH3-4.

GTCATC: the “6-mer SELEX enrichment z-score” value in the assay on IMP3 KH1-4 is 0.096; in the assay on IMP3 RRM1-2 it was 0.801; in the assay with IMP3 KH1-2, -0.091; in the assay with IMP3 KH3-4 it was -0.126.

GGCATC: the “6-mer SELEX enrichment z-score” value in the assay with IMP3 KH1-4 stood at 1.51; with IMP3 RRM1-2 it was 0.963; in the assay on IMP3 KH1-2 it was 0.918; in the assay with IMP3 KH3-4 it was 0.592.

On to GGAAGG, for which the “6-mer SELEX enrichment z-score” value was 0.907 in the assay on IMP3 KH1-4, -0.411 in the assay with IMP3 RRM1-2, 0.91 with IMP3 KH1-2 and 0.822 with IMP3 KH3-4.

Take TTGTAG: the “6-mer SELEX enrichment z-score” value in the assay with IMP3 KH1-4 is -0.062; in the assay on IMP3 RRM1-2, 0.232; with IMP3 KH1-2, -0.085; in the assay with IMP3 KH3-4, 0.149.
